Common to all, as to test: cell-based or functional assay
For experiment [1], the target named is intermediate affinity hIL-2 receptor complex (IL-2Rβγ) (human) (UniProt P14784).
Experiment [2] has as its target high-affinity hIL-2 receptor (IL-2Rαβγ) on NK-92 cells (human) (UniProt P01589).
Experiment [3] addresses high-affinity hIL-2 receptor (IL-2Rαβγ) (human) (UniProt P01589).
Experiment [4] concerns the target intermediate affinity hIL-2 receptor complex (IL-2Rβγ) on TF1+IL-2Rβ cells (human) (UniProt P14784).

B1: 1H3-hIgG1-L6-hIL-2 (D20A) (protein)
heavy: EVQLVESGGGLVQPGRSLKLSCAVSGFTFSDYAMAWVRQAPKKGLEWVATISYDGSRTYYRDSVKGRFTISRDNAKITLYLQMDSLRSEDTATYYCARHGSGYFDYWGQGVMVTVSS[not shown - about 450 residues with a human IgG1 Fc and changes]
light: DTVLTQSPALAVSPGERVTISCRASESVRTGVHWYQQKPGQQPKLLIYGASNLESGVPARFSGSGSGTDFTLTIDPVEADDTATYFCQQSWNDPFTFGSGTKLEIKRTVAAPSVFIFPPSDEQLKSGTASVVCLLNNFYPREAKVQWKVDNALQSGNSQESVTEQDSKDSTYSLSSTLTLSKADYEKHKVYACEVTHQGLSSPVTKSFNRGEC
Regarding B1, the Fold change from rhIL-2 (TF1 + IL-2Rβ), pSTAT5 titration in experiment [1] was 117 fold. The molecule also came in with a Fold change from hIL-2 (NK-92) in experiment [2] of 7 fold. Besides, the Fold change from rhIL-2 (NK-92), pSTAT5 titration in experiment [3] was determined as 21 fold. The Fold change from hIL-2 (TF1 + IL-2Rβ) in experiment [4] was found to be 2 fold.

B2: 1H3-hIgG1-L6-hIL-2 (D20A/E95A/K43A) (protein)
heavy: EVQLVESGGGLVQPGRSLKLSCAVSGFTFSDYAMAWVRQAPKKGLEWVATISYDGSRTYYRDSVKGRFTISRDNAKITLYLQMDSLRSEDTATYYCARHGSGYFDYWGQGVMVTVSS[not shown - human IgG1 constant region]SGGGGSAPTSSSTKKTQLQLEHLLLALQMILNGINNYKNPKLTRMLTFAFYMPKKATELKHLQCLEEELKPLEEVLNLAQSKNFHLRPRDLISNINVIVLALKGSETTFMCEYADETATIVEFLNRWITFCQSIISTLT
light: B1 light
B2: in experiment [2], the Fold change from hIL-2 (NK-92) was 5 fold. The Fold change from hIL-2 (TF1 + IL-2Rβ) in experiment [4] is 7 fold.

B3: 1H3-hIgG1-L6-hIL-2 (D20Y/I92A) (protein)
heavy: EVQLVESGGGLVQPGRSLKLSCAVSGFTFSDYAMAWVRQAPKKGLEWVATISYDGSRTYYRDSVKGRFTISRDNAKITLYLQMDSLRSEDTATYYCARHGSGYFDYWGQGVMVTVSS[not shown - about 450 residues with a human IgG1 Fc and changes]
light: B1 light
As to B3, the Fold change from rhIL-2 (TF1 + IL-2Rβ), pSTAT5 titration in experiment [1] came to 4 fold. In experiment [2], the Fold change from hIL-2 (NK-92) came to 11 fold. In experiment [3], this molecule yielded a Fold change from rhIL-2 (NK-92), pSTAT5 titration of over 10000 fold. Besides, the Fold change from hIL-2 (TF1 + IL-2Rβ) in experiment [4] came out at 4 fold.

B4: 1H3-hIgG1-L6-hIL-2 (D20Y/I92S) (protein)
heavy: EVQLVESGGGLVQPGRSLKLSCAVSGFTFSDYAMAWVRQAPKKGLEWVATISYDGSRTYYRDSVKGRFTISRDNAKITLYLQMDSLRSEDTATYYCARHGSGYFDYWGQGVMVTVSS[not shown - about 450 residues with a human IgG1 Fc and changes]
light: B1 light
As for B4, in experiment [1], the Fold change from rhIL-2 (TF1 + IL-2Rβ), pSTAT5 titration stood at 12 fold. In addition, the Fold change from hIL-2 (NK-92) in experiment [2] stood at 11 fold. In experiment [3], this molecule registered a Fold change from rhIL-2 (NK-92), pSTAT5 titration of over 10000 fold. The Fold change from hIL-2 (TF1 + IL-2Rβ) in experiment [4] turned out to be 4 fold.

B5: 1H3-hIgG1-L6-hIL-2 (R38E/Q126V) (protein)
heavy: EVQLVESGGGLVQPGRSLKLSCAVSGFTFSDYAMAWVRQAPKKGLEWVATISYDGSRTYYRDSVKGRFTISRDNAKITLYLQMDSLRSEDTATYYCARHGSGYFDYWGQGVMVTVSS[not shown - about 450 residues with a human IgG1 Fc and changes]
light: B1 light
Molecule B5 returned a Fold change from hIL-2 (NK-92) in experiment [2] of 14 fold. In addition, the Fold change from hIL-2 (TF1 + IL-2Rβ) in experiment [4] was found to be 1 fold.

B6: 1H3-hIgG1-L6-hIL-2 (D20Y/H16Y) (protein)
heavy: EVQLVESGGGLVQPGRSLKLSCAVSGFTFSDYAMAWVRQAPKKGLEWVATISYDGSRTYYRDSVKGRFTISRDNAKITLYLQMDSLRSEDTATYYCARHGSGYFDYWGQGVMVTVSS[not shown - about 450 residues with a human IgG1 Fc and changes]
light: B1 light
Consider B6, for which the Fold change from rhIL-2 (TF1 + IL-2Rβ), pSTAT5 titration in experiment [1] was 343 fold. Further, the Fold change from hIL-2 (NK-92) in experiment [2] was determined as 10 fold. For the same molecule, in experiment [3], the Fold change from rhIL-2 (NK-92), pSTAT5 titration was over 10000 fold. For the same molecule, the Fold change from hIL-2 (TF1 + IL-2Rβ) in experiment [4] was 4 fold.

B7: 1H3-hIgG1-L6-hIL-2 (R38E/T123A) (protein)
heavy: EVQLVESGGGLVQPGRSLKLSCAVSGFTFSDYAMAWVRQAPKKGLEWVATISYDGSRTYYRDSVKGRFTISRDNAKITLYLQMDSLRSEDTATYYCARHGSGYFDYWGQGVMVTVSS[not shown - about 450 residues with a human IgG1 Fc and changes]
light: B1 light
B7 showed a Fold change from hIL-2 (NK-92) in experiment [2] of 12 fold. In addition, in experiment [4], the Fold change from hIL-2 (TF1 + IL-2Rβ) stood at 0 fold.

B8: 1H3-hIgG1-L6-hIL-2 (R38E/Q22A/S130A) (protein)
heavy: EVQLVESGGGLVQPGRSLKLSCAVSGFTFSDYAMAWVRQAPKKGLEWVATISYDGSRTYYRDSVKGRFTISRDNAKITLYLQMDSLRSEDTATYYCARHGSGYFDYWGQGVMVTVSS[not shown - human IgG1 constant region]SGGGGSAPTSSSTKKTQLQLEHLLLDLAMILNGINNYKNPKLTEMLTFKFYMPKKATELKHLQCLEEELKPLEEVLNLAQSKNFHLRPRDLISNINVIVLELKGSETTFMCEYADETATIVEFLNRWITFCQSIIATLT
light: B1 light
Consider B8, for which the Fold change from hIL-2 (NK-92) in experiment [2] came out at 13 fold. Further, in experiment [4], the Fold change from hIL-2 (TF1 + IL-2Rβ) stood at 1 fold.

B9: 1H3-hIgG1-L6-hIL-2 (R38G/D20A) (protein)
heavy: EVQLVESGGGLVQPGRSLKLSCAVSGFTFSDYAMAWVRQAPKKGLEWVATISYDGSRTYYRDSVKGRFTISRDNAKITLYLQMDSLRSEDTATYYCARHGSGYFDYWGQGVMVTVSS[not shown - about 450 residues with a human IgG1 Fc and changes]
light: B1 light
On to B9, for which, in experiment [1], the Agonistic Activity (TF1 + IL-2Rβ), pSTAT5 titration is 70% and the Fold change from rhIL-2 (TF1 + IL-2Rβ), pSTAT5 titration was 139 fold. For the same molecule, in experiment [2], the Fold change from hIL-2 (NK-92) came out at 13 fold. In experiment [3], this molecule had an Agonistic Activity (NK-92), pSTAT5 titration of 70% and a Fold change from rhIL-2 (NK-92), pSTAT5 titration of 2810 fold. The Fold change from hIL-2 (TF1 + IL-2Rβ) in experiment [4] was 2 fold.

B10: 1H3-hIgG1-L6-hIL-2 (D20A/E95A/Y45S) (protein)
heavy: EVQLVESGGGLVQPGRSLKLSCAVSGFTFSDYAMAWVRQAPKKGLEWVATISYDGSRTYYRDSVKGRFTISRDNAKITLYLQMDSLRSEDTATYYCARHGSGYFDYWGQGVMVTVSS[not shown - human IgG1 constant region]SGGGGSAPTSSSTKKTQLQLEHLLLALQMILNGINNYKNPKLTRMLTFKFSMPKKATELKHLQCLEEELKPLEEVLNLAQSKNFHLRPRDLISNINVIVLALKGSETTFMCEYADETATIVEFLNRWITFCQSIISTLT
light: B1 light
B10 registered a Fold change from hIL-2 (NK-92) in experiment [2] of 5 fold. Further, the Fold change from hIL-2 (TF1 + IL-2Rβ) in experiment [4] was 6 fold.

B11: 1H3-hIgG1-L6-hIL-2 (R38E/Q22A) (protein)
heavy: EVQLVESGGGLVQPGRSLKLSCAVSGFTFSDYAMAWVRQAPKKGLEWVATISYDGSRTYYRDSVKGRFTISRDNAKITLYLQMDSLRSEDTATYYCARHGSGYFDYWGQGVMVTVSS[not shown - about 450 residues with a human IgG1 Fc and changes]
light: B1 light
On to B11, for which the Fold change from hIL-2 (NK-92) in experiment [2] came to 12 fold. Further, the Fold change from hIL-2 (TF1 + IL-2Rβ) in experiment [4] turned out to be 0 fold.

B12: 1H3-hIgG1-L6-hIL-2 (D20T) (protein)
heavy: EVQLVESGGGLVQPGRSLKLSCAVSGFTFSDYAMAWVRQAPKKGLEWVATISYDGSRTYYRDSVKGRFTISRDNAKITLYLQMDSLRSEDTATYYCARHGSGYFDYWGQGVMVTVSS[not shown - about 450 residues with a human IgG1 Fc and changes]
light: B1 light
With B12, the Fold change from rhIL-2 (TF1 + IL-2Rβ), pSTAT5 titration in experiment [1] was determined as 167 fold. In addition, in experiment [2], the Fold change from hIL-2 (NK-92) was 3 fold. In experiment [3], this molecule registered a Fold change from rhIL-2 (NK-92), pSTAT5 titration of 8 fold. Also, in experiment [4], the Fold change from hIL-2 (TF1 + IL-2Rβ) was found to be 2 fold.
